Among all 150,000 compounds or so, about 540 (0.36%) showed an effect of 50% or more. This is one part of the list.

A word on the % Inhibition: it is the drop in the measured response relative to a control, in per cent.

This assay concerns Plasmodium falciparum. As to the kind of experiment: Primary screen in NF54 nanoGlo assay, in single point, at 2uM, 72h; a lower Z score goes with more inhibition. The settings on record: timepoint 72 hour. The format is functional, Erythrocyte.
Consider `CC(C)C[C@@H](CN(C)C)NC(=O)C(=O)Nc1ccn(Cc2ccncc2)n1`, for which the “% Inhibition” value was -7% and the Z score was found to be 1.15.
Take `CN1C[C@@H](NC(=O)c2cnc(Cc3c(Cl)cccc3Cl)nc2O)CCC1=O`: the “% Inhibition” value came out at 7% and the Z score was -0.79.
For `COCC(=O)N1CCC(C(=O)N(C)[C@@H](C)c2c(C)nn(C)c2C)CC1`, the “% Inhibition” value is given as -5% and the Z score came to 0.6.
As for `O=C(Cc1noc2ccccc12)N1CCC[C@H](c2nnc3ccccn23)C1`, the “% Inhibition” value is reported as -13% and the Z score is listed as 1.19.
Take `Cc1cnc([C@H](C)Nc2ccnc(N(C)C)n2)o1`: the “% Inhibition” value is given as -4% and the Z score worked out at 0.38.
On to `Cc1cc(NC(=O)NCCc2nc(C)oc2C)on1`, for which the “% Inhibition” value is listed as 0% and the Z score was found to be 0.
`CCN(C[C@H]1CCCO1)C(=O)c1ccc(-c2ccc(C(C)=O)cn2)cc1`: the “% Inhibition” value is -11% and the Z score stood at 1.58.
The like results for `COCCCn1cnc2c(-c3ccccc3)cn(CC(=O)Nc3ccc4c(c3)OCO4)c2c1=O` were, in that order, 10% and -1.46.
On to `CC(=O)N1CCc2cc(S(=O)(=O)N3CCNC(C)C3C)ccc21` (stereo unspecified), for which the “% Inhibition” value is reported as -11% and the Z score turned out to be 1.96.
The like results for `C[C@@H](Cn1cncn1)NC(=O)Nc1c(-c2ccccc2)cnn1C(C)(C)C` were, in that order, 5% and -0.65.
For `CCNc1ccnc(-c2ccc(OC)nc2)n1` the same measures were -2% and 0.37.
As to `CCNC(=O)N(CC(=O)N1CCc2sccc2C1COc1ccc(C(C)C)cc1)CC1CCCO1` (stereo unspecified), the “% Inhibition” value is on record as -4% and the Z score is 0.5.
For `CCn1cncc1-c1c(-c2ccccc2)ncn1CCc1c[nH]cn1` the same measures were 9% and -1.28.
In the case of `CCOc1cccc(-c2ccc3nc(-c4ccc(Cl)cc4)c(CCC(=O)N[C@@H](C)CC)n3c2)c1`, the “% Inhibition” value was found to be 4% and the Z score is on record as -0.58.
In the case of `CC[C@H]1CN(C)CCCN1S(=O)(=O)c1cc(OC)ns1`, the “% Inhibition” value is 8% and the Z score is recorded as -0.96.
Take `COCC1(C)CCN(C(=O)[C@@H]2NCc3ncncc32)CC1`: the “% Inhibition” value is listed as -8% and the Z score came to 1.65.
Regarding `CCCC1CCC(C(=O)Nn2c(-c3cccc(OC)c3)nc3ccccc3c2=O)CC1` (stereo unspecified), the “% Inhibition” value was -2% and the Z score was 0.33.
Turning to `Cc1cccc([C@@H]2CC(=O)N(CC(=O)NCc3ccccc3)C(=O)N2)c1`, the “% Inhibition” value is 1% and the Z score is -0.11.
With `O=C(NCCc1ccc2c(c1)OCO2)c1cnn2c(-c3cccs3)ccnc12`, the “% Inhibition” value is -7% and the Z score is on record as 0.96.
The like results for `O=C(NCc1nnc[nH]1)c1cc(-c2ccccc2)ccc1Cl` were, in that order, -13% and 1.36.
As for `COc1ccc(-n2c(-c3ccccc3)cn(-c3ccccc3)c2=O)cc1`, the “% Inhibition” value is listed as -1% and the Z score is 0.11.
With `Cc1nc([C@H](C)NC(=O)Cc2sc(N)nc2C)c(C)s1`, the “% Inhibition” value is listed as -12% and the Z score turned out to be 1.61.
As for `COc1ccc(C(C)(C)c2nc([C@H]3CN4CCC[C@H]4CO3)no2)cc1`, the “% Inhibition” value is reported as -3% and the Z score is 0.53.
On to `O=C(NC[C@H](O)Cc1ccccc1)c1cccc2c1CCOC2`, for which the “% Inhibition” value was -6% and the Z score was found to be 1.1.
In the case of `Cc1ccc(C(=O)N2CC3CCC3(Nc3ncncc3Cl)C2)o1` (stereo unspecified), the “% Inhibition” value was -10% and the Z score was found to be 1.05.
The like results for `O=C1NC(=O)C2(CCCN(C(=O)C3CCCc4sccc43)C2)N1` (stereo unspecified) were, in that order, 2% and -0.4.
The like results for `Cc1ncc(C)c(NC(=O)[C@H]2C[C@@H]2c2ccc(OC(F)F)cc2)n1` were, in that order, -1% and 0.14.
For `O=C(NC[C@H]1COc2ccccc2O1)C1CCN(C(=O)c2ccco2)CC1` the same measures were -10% and 1.33.
On to `O=C(Cc1ccc2cn[nH]c2c1)NC1CCC2CCCC2C1` (stereo unspecified), for which the “% Inhibition” value is -3% and the Z score was found to be 0.41.
The like results for `CCOc1cccc(CCNC(=O)c2cc(C)sn2)n1` were, in that order, 2% and -0.25.
Turning to `COc1cccc2c(C(=O)N[C@H]3CCN(C(C)(C)C)C3=O)n[nH]c12`, the “% Inhibition” value is -12% and the Z score is 1.33.
With `C[C@@H]1CC[C@H](CO)N1C(=O)Cc1cccc(C(F)(F)F)n1`, the “% Inhibition” value is reported as 3% and the Z score is -0.37.
As for `CCC1(CC)NC(=O)N(c2ccc(OC)nn2)C1=O`, the “% Inhibition” value is given as -9% and the Z score is 1.23.
For `CCN1CCN(C(=O)c2cnc(-c3ccc(F)cc3)nc2N(CC)CC)CC1` the same measures were -7% and 1.13.
On to `Cc1cccc2c1OCC[C@H]2NC(=O)N1CC2CCC(C1)O2`, for which the “% Inhibition” value is on record as -11% and the Z score is recorded as 2.33.
With `CC(C)[C@H](NCc1ccc2c(c1)OCCO2)c1nc(-c2ccccc2)no1`, the “% Inhibition” value is on record as -3% and the Z score stood at 0.34.
Regarding `CCc1nnc(CN(C)C(=O)NCCc2noc(C3CCCC3)n2)o1`, the “% Inhibition” value is listed as 1% and the Z score is recorded as -0.13.
The like results for `COc1ccc(CCC(=O)N2CCn3c2nc2ccccc23)cc1` were, in that order, 1% and -0.24.
For `Cc1cn([C@@H](C)c2ccccc2)nc1NC(=O)NCC1CC1`, the “% Inhibition” value was -3% and the Z score was 0.52.
Take `CCN(CC)S(=O)(=O)c1ccc(NC(=O)CN2Cc3ccccc3C[C@H]2C(=O)N2CCCC2)cc1`: the “% Inhibition” value is given as -2% and the Z score worked out at 0.23.
For the compound `Cc1cccc(N2CCN(c3ccc(-c4nc(-c5cccc(F)c5)no4)cn3)C[C@@H]2C)c1`, the “% Inhibition” value was -4% and the Z score stood at 0.72.
For `CC(C)(C)c1ncc(C(=O)N2CCc3c(CN4CCCC4)cccc32)cn1` the same measures were -15% and 2.85.
The like results for `O=C(NCc1c(F)cccc1F)N1C2CCC1CC(Oc1ccccn1)C2` (stereo unspecified) were, in that order, -7% and 1.31.
For `O=C(CCC1CCN(S(=O)(=O)c2cccc(F)c2)CC1)NCCN1CCOCC1`, the “% Inhibition” value is -10% and the Z score is given as 1.37.
For the compound `Cc1cc(C(=O)NCCOCCn2ccnc2)nn1C`, the “% Inhibition” value was -13% and the Z score stood at 1.45.
On to `Nc1ccc(Oc2nccs2)c(Cl)c1`, for which the “% Inhibition” value was -2% and the Z score is reported as 0.26.
Regarding `CN(C[C@H]1CCCO1)c1ncnc2[nH]ccc12`, the “% Inhibition” value was determined as 7% and the Z score is listed as -0.83.
As to `CCn1nc2n(c1=O)CCN(S(=O)(=O)c1ccc(OC)c(OC)c1)[C@@H]2c1ccccc1`, the “% Inhibition” value was -10% and the Z score is on record as 1.53.
In the case of `COCCn1c(C[C@H]2CCN(S(=O)(=O)c3cc(F)cc(F)c3)C2)nc2cccnc21`, the “% Inhibition” value is reported as -1% and the Z score is 0.11.
As to `CN1CCN(C(=O)[C@H]2CCCN(c3nnc4ccc(C(F)(F)F)cn34)C2)CC1`, the “% Inhibition” value is -7% and the Z score stood at 0.78.
With `Cc1cc(-c2nnc(CCC(=O)NC[C@@H]3C[C@@H]4C=C[C@@H]3C43CC3)o2)no1`, the “% Inhibition” value is reported as 7% and the Z score is given as -0.9.
Consider `CCN1CCN([C@@H](c2ccncc2)c2c(O)cc(C)n(Cc3ccccc3)c2=O)CC1`, for which the “% Inhibition” value was 14% and the Z score is -1.81.
On to `CCn1cc(C2OCCC2CNCc2cnc3cc(C)ccn23)cn1` (stereo unspecified), for which the “% Inhibition” value is reported as -8% and the Z score is listed as 1.44.
Turning to `Cc1ncnc(N[C@@H](C)CCCC(C)(C)O)c1C`, the “% Inhibition” value was -1% and the Z score came out at 0.07.
For `C[C@H](NC(=O)NC[C@@H]1CCC[C@H]1O)c1nccs1` the same measures were 0% and -0.09.
For `Cc1ncc2n1C[C@@H](C(=O)NCc1ccc(CO)c(F)c1)CC2` the same measures were -7% and 0.84.
For `Cc1c(NC[C@H](C)c2ccccc2)cnn1C` the same measures were -3% and 0.4.
Regarding `CCn1nnc2cc(C(=O)N(C)c3ccccc3)ccc21`, the “% Inhibition” value is given as -9% and the Z score worked out at 1.64.
Take `Cc1cc(C)cc(CN(C)C(=O)c2cc(-c3ccn(C)n3)on2)c1`: the “% Inhibition” value turned out to be 1% and the Z score was -0.07.
For the compound `Cc1ccc(C(=O)N[C@@H]2C[C@H]3CC[C@@H]2C3)cc1`, the “% Inhibition” value is recorded as -2% and the Z score is on record as 0.29.
For `C[C@@H]1CN(C2CCN(C(=O)CCn3nnc4ccccc43)CC2)C[C@H](C)O1` the same measures were -13% and 2.76.
Regarding `COCCOc1cc(Cn2cccn2)ccn1`, the “% Inhibition” value was determined as 6% and the Z score is listed as -0.82.
For `CC(Nc1ncc(C(F)(F)F)cc1Cl)C1CCCO1` (stereo unspecified) the same measures were -1% and 0.1.
For `CC/C=C(\C)CN1C[C@H](N(C)C)C[C@H]1CO` the same measures were 3% and -0.54.
The like results for `Cc1ccsc1CNC(=O)N(CC(C)(C)O)C(C)C` were, in that order, -3% and 0.44.
For `CCc1ccc(N2C(=O)c3cc4ccc(OC)cc4n3C[C@@]2(C)C(=O)NC2CCCCCCC2)cc1`, the “% Inhibition” value is given as 0% and the Z score is 0.06.
In the case of `Cn1nc(C(=O)N2CC(C)(C)OC(C)(C)C2)cc1OC(F)F`, the “% Inhibition” value is given as -1% and the Z score stood at 0.27.
For `CC1(C)CN(C(=O)c2cn(C(C)(C)C)nn2)C[C@@H]1O` the same measures were -2% and 0.42.
With `O=C(Nc1cc(F)ccc1F)N1CC[C@H](Oc2ncccc2C(=O)N2CCOCC2)C1`, the “% Inhibition” value came to 5% and the Z score is -0.78.
`CCn1ccc(-c2cc(C(=O)Nc3cccc(Cl)c3C)c3c(C)noc3n2)n1`: the “% Inhibition” value is given as 28% and the Z score is -3.22.
For the compound `CCOCCC1(CNC(=O)c2cc(C)n[nH]2)CCC1`, the “% Inhibition” value was 32% and the Z score is -4.64.
Regarding `CCn1nccc1C(=O)N1C[C@@H](Oc2ccccc2)C[C@@H]1C(=O)N1CCOCC1`, the “% Inhibition” value was -11% and the Z score worked out at 2.19.
In the case of `CCc1cccc(NC(=O)Cn2ccc3ccc(-c4nnc(C)o4)cc32)c1`, the “% Inhibition” value turned out to be 78% and the Z score is -9.29.
As to `CCCN(CC(=O)N(CCc1ccccc1)Cc1ccco1)C(=O)Nc1cccc(C#N)c1`, the “% Inhibition” value is listed as -14% and the Z score worked out at 1.77.
With `NC(=O)CC1CCN(C(=O)c2c3c(nc4ccccc24)CCC3)CC1`, the “% Inhibition” value is listed as -3% and the Z score was determined as 0.41.
For `Cc1cc2c(cc1S(=O)(=O)Nc1ccc(Cl)cc1F)OCC(=O)N2Cc1noc(C2CC2)n1` the same measures were 10% and -1.19.
Turning to `C[C@H](NC(=O)N1CCC(CN2CCc3ccccc32)CC1)c1ccncc1`, the “% Inhibition” value is reported as -8% and the Z score amounted to 1.04.
For `O=C(CNc1ccc(-n2cnnn2)cc1)NC1CCCCC1`, the “% Inhibition” value is -10% and the Z score worked out at 1.48.
For `Cc1nnc(C(C)N2CCOC(C3CCCCC3)C2)o1` (stereo unspecified) the same measures were -27% and 3.15.
For `CN1C(=O)N([C@@H]2COc3ccc(F)cc3C2)C(=O)C1(C)C` the same measures were -8% and 1.08.
For `O=C(CCc1cn[nH]c1)N[C@@H]1CCC[C@H]1OCc1ccccc1` the same measures were -2% and 0.31.
For the compound `C=CCN(C(=O)c1cc(COc2cc(C)c(Cl)c(C)c2)on1)[C@H]1CCS(=O)(=O)C1`, the “% Inhibition” value is 0% and the Z score is -0.01.
Turning to `Cc1ccccc1N1CCN(C(=O)c2nccnc2-c2nc3ccccc3s2)CC1`, the “% Inhibition” value is reported as 12% and the Z score is reported as -1.38.

Values taken from ChEMBL document CHEMBL4888484, “Replenishing the malaria drug discovery pipeline: Screening and hit evaluation of the MMV Hit Generation Library 1 (HGL1) against asexual blood stage Plasmodium falciparum ,using a nano luciferase reporter read-out” (2022).
